# In the supplement of paper PMC4967469:
# Lines with a small IC50 respond at low doses; a fit beyond the top or the lowest dose is shown as a bound at that dose. AUC is the area under the same curve over the 256-fold range up to the top dose, as a fraction; values near 1 show little effect. For some of these results: Where the top dose is marked as inferred, it is not printed in the source and was worked back from the curve model. For some of these results: An entry number marks a drug with two screens in the source, which often give different values.
# Tests used:
# Assay in all cases: Viability of human cancer cell lines after 72 h of drug (GDSC screen)
# SNX-2112 = compound: CC1(C)CC(=O)c2c(C(F)(F)F)nn(-c3ccc(C(N)=O)c(N[C@H]4CC[C@H](O)CC4)c3)c2C1 [SNX-2112]; conditions: top dose 2.56 µM
# Procedure: (§1)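 Human cancer cell lines in 384-well plates, medium with 10% serum, drug for 72 h over a 256-fold dose range (nine 2-fold or five 4-fold steps up to the top dose). Adherent lines were fixed and stained with the nucleic acid dye Syto60, suspension lines read with resazurin; signal relative to control wells, capped at 0 and 100%. One two-parameter sigmoid per drug and line, fitted in a mixed model over all curves with the slope shared within a line.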
# Vinblastine = compound: CC[C@]1(O)C[C@@H]2CN(CCc3c([nH]c4ccccc34)[C@@](C(=O)OC)(c3cc4c(cc3OC)N(C)[C@H]3[C@@](O)(C(=O)OC)[C@H](OC(C)=O)[C@]5(CC)C=CCN6CC[C@]43[C@@H]65)C2)C1 [Vinblastine]; conditions: top dose 0.1 µM; top dose inferred
# Procedure: as §1
# Afatinib = compound: CN(C)C/C=C/C(=O)Nc1cc2c(Nc3ccc(F)c(Cl)c3)ncnc2cc1O[C@H]1CCOC1 [Afatinib]
# Procedure: as §1
# PF-562271 = compound: CN(c1ncccc1CNc1nc(Nc2ccc3c(c2)CC(=O)N3)ncc1C(F)(F)F)S(C)(=O)=O [PF-562271]; conditions: top dose 2.56 µM; top dose inferred
# Procedure: as §1
# XMD13-2 = compound: O=C(NC1CC1)c1cccc(-c2ccc3c(NC(=O)C4CC4)n[nH]c3c2)c1 [XMD13-2]; conditions: top dose 10.24 µM; top dose inferred
# Procedure: as §1
# [1] = top dose 0.5 µM, screen: GDSC drug entry 1032
# [2] = top dose 10 µM, screen: GDSC drug entry 1377, top dose inferred
Cell Line,AUC (SNX-2112),IC50 (SNX-2112) [nM],AUC (Vinblastine),IC50 (Vinblastine) [nM],AUC (Afatinib; [1]),IC50 (Afatinib; [1]) [nM],AUC (Afatinib; [2]),IC50 (Afatinib; [2]) [nM],AUC (PF-562271),IC50 (PF-562271) [nM],AUC (XMD13-2),IC50 (XMD13-2) [nM]
"NCI-H1417 (small cell lung carcinoma, suspension)",0.632,397,0.53,7.66,0.973,> 500,0.951,> 10000,0.942,> 2560,0.882,> 10200
"NCI-H1435 (lung adenocarcinoma, semi-adherent)",0.945,> 2560,0.965,> 100,0.948,> 500,0.991,> 10000,0.99,> 2560,0.993,> 10200
"NCI-H1436 (small cell lung carcinoma, suspension)",0.825,1830,0.857,> 100,0.986,> 500,0.926,> 10000,0.975,> 2560,0.924,> 10200
"NCI-H1437 (lung adenocarcinoma, adherent)",0.895,> 2560,0.542,8.17,0.985,> 500,0.985,> 10000,0.939,> 2560,0.897,> 10200
"NCI-H1563 (lung adenocarcinoma, adherent)",0.985,> 2560,0.652,18,0.968,> 500,0.934,> 10000,0.985,> 2560,0.97,> 10200
"NCI-H1568 (lung adenocarcinoma, adherent)",0.93,> 2560,0.736,35.5,0.813,357,0.479,542,0.903,> 2560,0.967,> 10200
"NCI-H1581 (large cell lung carcinoma, semi-adherent)",0.876,2180,0.475,5.39,0.99,> 500,0.979,> 10000,0.986,> 2560,0.885,9640
"NCI-H1648 (lung adenocarcinoma, adherent)",0.725,727,0.496,6.08,0.837,365,0.718,2710,0.906,> 2560,0.921,> 10200
"NCI-H1651 (lung adenocarcinoma, adherent)",0.945,> 2560,0.704,24.6,0.983,> 500,0.961,> 10000,0.952,> 2560,0.983,> 10200
"NCI-H1666 (lung adenocarcinoma, semi-adherent)",0.774,1100,0.673,19.9,0.609,64.1,0.514,683,0.985,> 2560,0.981,> 10200
"NCI-H1688 (small cell lung carcinoma, adherent)",0.814,1570,0.744,34,0.985,> 500,0.984,> 10000,0.963,> 2560,0.963,> 10200
"NCI-H1693 (lung adenocarcinoma, adherent)",0.961,> 2560,0.772,65.1,0.843,> 500,0.712,3640,0.958,> 2560,0.954,> 10200
"NCI-H1694 (small cell lung carcinoma, suspension)",0.619,339,0.777,40,0.988,> 500,0.973,> 10000,0.977,> 2560,0.929,> 10200
"NCI-H1755 (lung adenocarcinoma, adherent)",0.428,98.7,0.663,19.1,0.983,> 500,0.947,> 10000,0.967,> 2560,0.984,> 10200
"NCI-H1770 (non-small cell lung carcinoma, suspension)",0.358,68.6,0.9,> 100,0.992,> 500,0.958,> 10000,0.921,> 2560,0.978,> 10200
"NCI-H1792 (lung adenocarcinoma, adherent)",0.764,845,0.332,2.24,0.99,> 500,0.963,> 10000,0.943,> 2560,0.95,> 10200
"NCI-H1836 (small cell lung carcinoma, suspension)",0.892,> 2560,0.973,> 100,0.988,> 500,0.961,> 10000,0.961,> 2560,0.901,> 10200
"NCI-H1838 (lung adenocarcinoma, adherent)",0.961,> 2560,0.859,> 100,0.868,> 500,0.932,> 10000,0.983,> 2560,0.984,> 10200
"NCI-H1869 (lung squamous cell carcinoma, adherent)",0.88,> 2560,0.809,60.8,0.923,> 500,0.915,> 10000,0.95,> 2560,0.976,> 10200
"NCI-H1876 (small cell lung carcinoma, adherent)",0.83,1630,0.572,9.88,0.983,> 500,0.965,> 10000,0.987,> 2560,0.912,> 10200

Cell Line,AUC (SNX-2112),IC50 (SNX-2112) [nM],AUC (Vinblastine),IC50 (Vinblastine) [nM],AUC (Afatinib; [1]),IC50 (Afatinib; [1]) [nM],AUC (Afatinib; [2]),IC50 (Afatinib; [2]) [nM],AUC (PF-562271),IC50 (PF-562271) [nM],AUC (XMD13-2),IC50 (XMD13-2) [nM]
"NCI-H1944 (lung adenocarcinoma, adherent)",0.433,104,0.61,12.8,0.927,> 500,0.927,> 10000,0.96,> 2560,0.915,> 10200
"NCI-H2009 (lung adenocarcinoma, adherent)",0.89,> 2560,0.665,18.5,0.976,> 500,0.978,> 10000,0.909,> 2560,0.975,> 10200
"NCI-H2023 (lung adenocarcinoma, adherent)",0.899,> 2560,0.806,66.4,0.955,> 500,0.93,> 10000,0.951,> 2560,0.982,> 10200
"NCI-H2029 (small cell lung carcinoma, adherent)",0.856,1750,0.92,> 100,0.992,> 500,0.992,> 10000,0.989,> 2560,0.957,> 10200
"NCI-H2052 (mesothelioma, adherent)",0.906,> 2560,0.653,18.7,0.971,> 500,–,–,0.932,> 2560,0.968,> 10200
"NCI-H2081 (small cell lung carcinoma, suspension)",0.988,> 2560,0.752,34.9,0.985,> 500,0.988,> 10000,0.932,> 2560,0.92,> 10200
"NCI-H2087 (lung adenocarcinoma, semi-adherent)",0.556,231,0.704,24.6,0.982,> 500,0.957,> 10000,0.874,> 2560,0.917,> 10200
"NCI-H2135 (non-small cell lung carcinoma, adherent)",0.37,71.1,0.962,> 100,0.991,> 500,0.99,> 10000,0.969,> 2560,0.939,> 10200
"NCI-H2141 (small cell lung carcinoma, suspension)",0.898,> 2560,0.894,> 100,0.991,> 500,0.975,> 10000,0.967,> 2560,0.952,> 10200
"NCI-H2172 (non-small cell lung carcinoma, adherent)",0.97,> 2560,0.938,> 100,0.981,> 500,0.974,> 10000,0.906,> 2560,0.983,> 10200
"NCI-H2227 (small cell lung carcinoma, semi-adherent)",0.584,280,0.828,72.8,0.986,> 500,0.97,> 10000,0.986,> 2560,0.859,> 10200
"NCI-H2291 (lung adenocarcinoma, adherent)",0.984,> 2560,0.881,> 100,0.951,> 500,0.873,> 10000,0.984,> 2560,0.984,> 10200
"NCI-H2342 (lung adenocarcinoma, adherent)",0.981,> 2560,0.93,> 100,0.981,> 500,0.898,> 10000,0.967,> 2560,0.985,> 10200
"NCI-H2347 (lung adenocarcinoma, adherent)",0.982,> 2560,0.849,> 100,0.982,> 500,0.935,> 10000,0.907,> 2560,0.979,> 10200
"NCI-H2405 (lung adenocarcinoma, adherent)",0.883,> 2560,0.952,> 100,0.977,> 500,0.976,> 10000,0.942,> 2560,0.964,> 10200
"NCI-H2444 (non-small cell lung carcinoma, adherent)",0.988,> 2560,0.936,> 100,0.979,> 500,0.987,> 10000,0.964,> 2560,0.988,> 10200
"NCI-H2452 (mesothelioma, adherent)",0.949,> 2560,0.589,11.5,0.982,> 500,0.932,> 10000,0.889,> 2560,0.984,> 10200
"NCI-H3122 (lung adenocarcinoma, adherent)",0.281,37.6,0.423,3.83,0.987,> 500,0.982,> 10000,0.873,> 2560,0.895,> 10200
"NCI-SNU-1 (stomach, suspension)",0.298,42.2,0.905,> 100,0.986,> 500,0.987,> 10000,0.933,> 2560,0.927,> 10200
"NCI-SNU-5 (stomach, suspension)",0.976,> 2560,0.719,26.3,0.989,> 500,0.963,> 10000,0.989,> 2560,0.989,> 10200
